# Results as given in PMC6212790.
# The list shows a part of the results. At the low end of the ranking the order means little.
# Target: T1, GST-Rok-C97-191 (UniProt O34857)
# T1 sequence: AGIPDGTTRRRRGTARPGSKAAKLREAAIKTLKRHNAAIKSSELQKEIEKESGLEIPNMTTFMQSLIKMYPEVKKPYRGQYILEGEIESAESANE
# Experiment: protein binding microarray;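 also: rank score from −0.5 (least bound) to 0.5 (best bound)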
# Settings: Rok is a gene silencer of Bacillus subtilis; high values mean tight binding; most listed sequences are background and not binding sites; double strand, one strand shown
row,Sequence,binding signal [E-score]
1,CTCCAAGA,-0.084
2,AGACACTA,0.0331
3,ACACAATA,0.153
4,CCTGCCAA,0.000588
5,AGCTTTAT,0.139
6,ACAAACGT,0.0766
7,ACGCTGTG,-0.183
8,AATGGTCT,-0.0373
9,TGCTCAAA,-0.0774
10,ACACCGGC,-0.282
11,TGGGACCA,-0.17
12,GCCACATA,-0.17
13,GTCCGGCA,-0.0894
14,TGGCACAA,-0.148
15,GGGTTGGA,-0.19
16,AGTTATTC,0.155
17,ATCGGCCA,0.0732
18,AGCATGCC,-0.0867
19,AGTAAACT,0.105
20,CGATTGCC,-0.0576
21,AAGATTGA,-0.0328
22,ACTACGGC,0.135
23,GCATTACA,0.0406
24,GCGTAAAA,0.139
25,ACCTTCTC,-0.0355

row,Sequence,binding signal [E-score]
1,AGGGTCTA,-0.218
2,AATTGTGA,0.177
3,ACGGATAT,0.0273
4,CCCTGACC,-0.368
5,GGCCGAAA,-0.0763
6,AGTAGTAG,0.385
7,CTCTTGGA,-0.216
8,TACTTCTA,0.374
9,AATGCAGT,-0.0264
10,CTCATTAC,0.0511
11,CTCAAGCA,-0.137
12,CGGTGCGA,-0.192
13,AAGTGCTG,-0.222
14,GCAATGGA,-0.132
15,GAGCCTAC,-0.193
16,ATCTAGAC,0.17
17,CTCTCGTA,-0.00131
18,GAATTTTA,0.304
19,ATTGGCGA,0.0442
20,GGGATTTA,0.194
21,AGGTTACA,0.121
22,AGGTGTCC,-0.13
23,GTCCTGTA,-0.104
24,ACAAAGAG,-0.107
25,GTTGCTAA,0.114

row,Sequence,binding signal [E-score]
1,AAAACCAA,0.0758
2,ATACACTG,0.0882
3,GGGCGTTA,-0.237
4,GCTCAATA,0.114
5,CAAGGCTC,-0.273
6,ACACTTAT,0.226
7,AATCGGAG,0.123
8,ATCAGGAA,0.156
9,GATGACGA,-0.175
10,ATGGTTTG,-0.003
11,ATGAGATG,0.00662
12,GAGACTCA,-0.18
13,CCATAATA,0.104
14,CGGCAGGC,-0.268
15,CGGGCCCC,-0.347
16,ATGTCTGA,0.000888
17,CAACGTAA,0.0717
18,ATATTGAA,0.203
19,TGAGTCAA,0.0513
20,CGCAGGCG,-0.308
21,CTCCCAAG,-0.265
22,AGCAGGCG,-0.141
23,CGTAAAAA,-0.0178
24,CTTAGCCC,-0.14
25,CAGGCAAC,-0.0688

row,Sequence,binding signal [E-score]
1,CGGACCCC,-0.212
2,CCGGCAAG,-0.0857
3,GTAAGGCA,-0.0838
4,AGAGTACT,0.169
5,AGAGAAGA,0.0903
6,CATATGAA,-0.0194
7,ACGATCGA,0.0924
8,AGGCTAGC,-0.115
9,GACACGTC,-0.169
10,CCTAGGAC,-0.0828
11,ACGCGACA,0.0239
12,ACATATTA,0.304
13,ATTCTCTC,-0.105
14,GCTGCGTA,-0.148
15,ATGAGCAT,-0.0594
16,CGAGTGAA,-0.0682
17,ACAAGAAC,0.0534
18,ACCCACGT,-0.188
19,ATCTGTGA,-0.0563
20,AAGAGCGT,-0.0627
21,CCTGTGCG,-0.227
22,CACAAGTC,-0.271
23,CCACGAAA,0.0822
24,GAACTCAC,0.0236
25,CCGCCACC,-0.143

row,Sequence,binding signal [E-score]
1,ATCCTTAA,-0.104
2,AGGAAGCC,-0.151
3,ATTCGGAA,0.12
4,GTCGGCGA,-0.125
5,TAACACCA,0.0115
6,CCTTAGCA,-0.106
7,CGTATGAG,-0.028
8,AGCCTTCA,-0.128
9,ACACGCAG,-0.19
10,GTAATGAA,-0.0192
11,GGTCAGCA,-0.231
12,CCTAAATA,0.155
13,AATTGGAG,0.085
14,AGGCCAAC,-0.129
15,GCTAAACA,-0.119
16,CACGGAGA,-0.118
17,AAGTACGA,0.194
18,ACAGACCT,-0.054
19,CACGTGCA,-0.148
20,CACCCGAG,-0.0129
21,ATCCGCCA,-0.21
22,CACTGACG,0.009
23,ATAGCCCG,-0.0269
24,CGGGGGGA,-0.317
25,CGTTCAAG,-0.258

row,Sequence,binding signal [E-score]
1,CTTGTACA,0.115
2,ACAGTGGA,0.124
3,GATATTGC,0.0982
4,TCGACTCA,0.0612
5,AAAAACAT,0.1
6,AGTATGAG,0.0573
7,TAAATTGA,0.221
8,AGATTACA,0.0826
9,AATGTCAA,-0.0783
10,ACTTCTAG,0.235
11,GAGTACCA,-0.0807
12,ATATCGAC,0.0908
13,CTAAATAA,0.266
14,ATAGCTGA,0.11
15,CGAAAAGA,-0.0269
16,GGGAGACA,-0.302
17,CAGCACTA,-0.19
18,ACCAAGTG,-0.127
19,TTACATAA,0.288
20,GGGGCTGA,-0.355
21,ACGTTCCC,-0.195
22,CTGTCTGA,-0.222
23,CCCCTGCA,-0.335
24,CACACGTC,-0.256
25,CATGTGTA,0.23

row,Sequence,binding signal [E-score]
1,CGCGGTTC,-0.14
2,GGTTGGAC,-0.252
3,AATGAAAA,-0.038
4,CAGCGTTA,0.0516
5,GGGCGCCA,-0.231
6,AACCTTCG,-0.0943
7,ATATTTTC,0.316
8,CAGATATA,0.195
9,GGAAAGAC,-0.185
10,AAAACTGC,-0.0367
11,ATAGCTAC,0.31
12,ATTATGAA,0.153
13,ACTAACCT,0.13
14,ACTTAACA,0.192
15,ATCCATGC,0.0436
16,TGCGTAAA,0.0869
17,AATTGCAG,-0.0417
18,ACCGAATG,0.181
19,GGGTCAAA,-0.168
20,GGAGTGGA,-0.299
21,AGTCACCG,0.109
22,AATCCTAG,0.0199
